Reference: the BET-seq Pho4 binding data (Le et al. 2018)
This is one part of the list. Values were computed here from the reads of four pooled replicates and scatter widely.

biological target: T1, Pho4 (S. cerevisiae) (UniProt P07270); assay: relative binding free energy (BET-seq); higher = weaker binding; details: reference: library average
T1 sequence: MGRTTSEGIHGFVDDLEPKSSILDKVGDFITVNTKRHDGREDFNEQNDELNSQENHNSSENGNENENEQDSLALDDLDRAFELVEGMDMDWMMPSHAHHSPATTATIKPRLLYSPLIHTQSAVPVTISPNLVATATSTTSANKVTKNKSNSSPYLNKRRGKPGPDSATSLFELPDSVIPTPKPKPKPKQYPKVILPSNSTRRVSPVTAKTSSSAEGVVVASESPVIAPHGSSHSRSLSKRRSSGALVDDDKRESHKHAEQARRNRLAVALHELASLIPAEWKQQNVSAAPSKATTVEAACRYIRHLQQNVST

Sequence	relative binding free energy [kcal/mol]
TCATGCACGTGTTAAG	0.02
TGAGGCACGTGTAGGT	-0.07
CTTGTCACGTGCTGGC	0.11
ATTGGCACGTGTCTTT	-0.2
ACGAGCACGTGTTGGT	-0.07
TGGGCCACGTGTGTTA	-0.05
TTGTACACGTGGTTAC	0.05
CAGTTCACGTGTGTGG	0.22
AAGTTCACGTGTGTTG	0.35
GATTTCACGTGATGAT	0.4
TGAGGCACGTGTGAGG	-0.05
AAAGGCACGTGTTTAG	-0.26
AATTGCACGTGGTAAG	-0.08
GATGGCACGTGGCAAG	-0.1
TAATGCACGTGTATCG	-0.02
GAGGTCACGTGGAAGA	0.23
CTATTCACGTGAGAGT	0.3
AGGAGCACGTGCGGTG	-0.06
GAGCGCACGTGGGGAA	-0.15
ATATGCACGTGAGTTA	0
ATTGGCACGTGTTTAA	-0.14
TGCAGCACGTGGTAGA	-0.06
CTGGCCACGTGGGAGG	-0.23
CTCTGCACGTGGGTGT	-0.21
GGGTTCACGTGTGTGG	0.34
TAGGTCACGTGCCTGG	0.12

Sequence	relative binding free energy [kcal/mol]
TTGGACACGTGCTGTT	-0.12
TGTTCCACGTGGATAT	0.02
ATGGTCACGTGAATAG	0.12
TTGTACACGTGATAGT	0.18
GGGTGCACGTGTGCGA	-0.01
TGTGGCACGTGTTCGT	-0.12
GGGTGCACGTGTATGA	0.04
CGGTACACGTGTGGAG	0.24
AGTAACACGTGCTGGT	-0.1
GGAGGCACGTGGACGT	-0.11
GGTGGCACGTGCGGTC	-0.01
AGCATCACGTGGAGGT	0.18
AAACGCACGTGTGTGG	-0.11
ATCGACACGTGTGAGT	0.2
ATTTACACGTGGGAAG	0.07
GGTATCACGTGCGTGT	0
TAGTACACGTGGTATG	-0.1
TTTTTCACGTGCTGGG	0.26
AGATACACGTGCAGTG	0.11
ATGGTCACGTGTGGCA	0.22
ATGGACACGTGTTTCG	-0.06
TACGTCACGTGGTGCG	-0.1
TTTGACACGTGTTGTT	0.03
TGTTGCACGTGTCAGT	0.06
AGAGGCACGTGTGCGA	-0.18
TTAAGCACGTGTAAAG	-0.05

Sequence	relative binding free energy [kcal/mol]
GGGTTCACGTGCAGGT	0.28
GGTGACACGTGTTGGT	0.18
GTGTACACGTGGAATT	0.28
GAGGACACGTGAGGTT	0.21
TTCGGCACGTGCGTAG	-0.1
GGTAGCACGTGGCAGA	0.02
GTATACACGTGAAGAT	0.44
TTAAGCACGTGTGCCG	0.01
TGATGCACGTGTTTAA	-0.03
TTAAACACGTGTGCGG	-0.08
GTAACCACGTGATTGT	0.19
GTTGTCACGTGGTCCG	0.02
GGATACACGTGGGAGG	0.02
TGGGTCACGTGCTCGT	0.18
GTGTCCACGTGAGTAT	0.34
TAATGCACGTGTAGGC	0.05
GAGTTCACGTGAGGAA	0.43
TTTGCCACGTGAGTGG	0.36
ATTTACACGTGTTTGA	0.15
GAATTCACGTGCGGTT	0.23
TGGTGCACGTGCTGGG	-0.03
GGTGTCACGTGGTTCG	0.09
AAGCGCACGTGGGTGA	-0.27
GACAGCACGTGGGGTT	-0.18
ATAAGCACGTGTGGGT	-0.14
TTAACCACGTGTTGTT	-0.04

Sequence	relative binding free energy [kcal/mol]
ATGTTCACGTGTAAGA	0.46
ATTCTCACGTGGTGGT	0.13
GAAGTCACGTGTTAGT	0.15
TTCTGCACGTGGGGAG	-0.16
GTGCTCACGTGAGATG	0.33
GATTGCACGTGGGTTC	-0.02
GTGGTCACGTGTATGT	0.22
ACTGGCACGTGGTGGT	-0.16
GGTCTCACGTGACGGT	0.46
GGGTGCACGTGTGCTA	0.03
TTTTGCACGTGATGCA	0.11
AATGTCACGTGCGATG	0.07
TTCAGCACGTGAGAGG	0.09
TTATACACGTGCGGTG	0.05
TATTGCACGTGTCTGC	0.12
AGTTGCACGTGGAATG	0.06
TCAGGCACGTGGGGTC	-0.26
ATTTTCACGTGGGATC	0.25
TGTTACACGTGCTTGA	0.05
TGTGGCACGTGCTATG	-0.24
GTGAACACGTGTGCGT	-0.05
TCATTCACGTGGTATG	0.2
GAATACACGTGATGGT	0.17
GGGCTCACGTGTAGGC	0.36
CGGCACACGTGTGGGG	0.1
GCGTACACGTGAAGGG	0.43

Sequence	relative binding free energy [kcal/mol]
CCGGGCACGTGGTCGG	0.07
CGATGCACGTGGGTCG	-0.04
ATTAGCACGTGATGGC	-0.04
TAGGACACGTGGGGGG	-0.09
AAAGTCACGTGTAATT	0.35
TTATGCACGTGTCGAT	-0.05
GTGTCCACGTGGGATG	-0.12
TGGGTCACGTGACTCT	0.35
AGTCTCACGTGGTGGA	0.19
TTTTTCACGTGCAAAT	0.19
TGGACCACGTGTCGGG	0
ATCAACACGTGTGGTT	0.05
TCGGGCACGTGTAGCG	-0.05
TCAGTCACGTGAGGTG	0.33
CATTTCACGTGTGTGT	0.25
AGGTTCACGTGGATGT	0.35
GTGTGCACGTGATATC	0.2
GTACTCACGTGTGTGT	0.15
ATAAACACGTGGGTTT	-0.04
AGGCGCACGTGGGGTT	-0.2
TCTTGCACGTGCTGTT	-0.08
ATTCTCACGTGTATAG	0.21
TTATCCACGTGGGTAT	-0.06
TGTCACACGTGCGTGG	-0.08
AGCTTCACGTGGAGTG	0.05
AAAGGCACGTGTGGAG	0

Sequence	relative binding free energy [kcal/mol]
TCCGGCACGTGTTGGA	0.09
TTTCTCACGTGCGTGG	0.12
ATTGACACGTGGGGGG	-0.27
TCTTTCACGTGTTTTT	0.24
TGTGACACGTGTGCTC	0.17
TGGGGCACGTGGAGTG	-0.14
AGTGCCACGTGTTGAA	0.03
AGACGCACGTGGCGGG	-0.24
ACGGTCACGTGTCTGT	0.03
ATCTTCACGTGGTGTC	0.17
CTTGGCACGTGATATT	-0.01
ATGAGCACGTGCTGGG	-0.09
AAGGGCACGTGTGTCA	-0.09
ATGGTCACGTGTGGGT	0.15
AGTTGCACGTGGATGC	-0.06
CGTTACACGTGTGGCT	0.18
AGGGGCACGTGCGAGT	-0.15
ATGGCCACGTGGTTGC	-0.05
TTGGTCACGTGAATGA	0.42
ATGAGCACGTGTAAAG	0
CAGTGCACGTGGGGAT	-0.34
TTAGGCACGTGGCTTG	-0.03
AGTTTCACGTGTTTAT	0.26
GGTTCCACGTGTGGGG	0.2
GTGGTCACGTGATAAT	0.26
CCTGTCACGTGTGGTT	0.06

Sequence	relative binding free energy [kcal/mol]
GTCGTCACGTGCGAGG	0.02
ATGCCCACGTGTTTGG	-0.04
GCGTTCACGTGGGTTA	0.06
CTTGCCACGTGTAGGG	-0.12
TTAAGCACGTGTTAGG	-0.14
TTATACACGTGGCTTT	-0.04
TTTGACACGTGGCTTT	-0.03
TGGTACACGTGTCTAG	0.02
TTATTCACGTGGGGTT	0.01
CGTGGCACGTGCGCTG	-0.26
GTACGCACGTGGGGTA	-0.37
AAATGCACGTGAGGGC	0.14
ATGATCACGTGGGTTA	0.01
ATGGACACGTGGGCTG	0
ATTTGCACGTGGTGAT	0.06
GGTCGCACGTGGGAGT	-0.17
TGGGGCACGTGGCTGA	-0.12
AGTATCACGTGGGATG	0.04
AGGTGCACGTGATCTT	0.01
TTTGTCACGTGGGACA	-0.04
TCATACACGTGTAGTG	0.06
GCTCGCACGTGTGTTG	0.08
TTGCTCACGTGTTGTA	0.23
ATGGGCACGTGGCGGT	-0.24
AGCTGCACGTGCGTTG	-0.09
TGTGGCACGTGGTAGA	-0.28

Sequence	relative binding free energy [kcal/mol]
GGGTACACGTGGTCGT	0.07
GATAGCACGTGGTCTT	-0.02
TTTAGCACGTGTAAAG	0.11
ATGTTCACGTGGCTGT	0.2
TTTAACACGTGTAATA	-0.02
TATATCACGTGTTCGT	0.16
AATATCACGTGGAGGG	-0.01
GTGTCCACGTGGGTCT	-0.12
TTATACACGTGAGTAT	0.28
TGTCGCACGTGCGGAT	-0.02
TCTAGCACGTGAGTGA	0.12
GGAAACACGTGTGTGA	0
GGATGCACGTGTATTC	0.13
GTATGCACGTGGTCGC	-0.05
GGGGGCACGTGTAACT	0.12
TGAGGCACGTGACTGG	0.03
GTGGGCACGTGAAATG	0.1
CTAGGCACGTGTATAT	-0.15
AGGCTCACGTGTATTT	0.17
CTGAGCACGTGGGTGT	-0.29
GGTTCCACGTGGGGCT	-0.12
GGCGGCACGTGGTGCG	-0.16
CATGGCACGTGGGCAG	-0.18
GTCTACACGTGTGTTG	0.14
CGTCACACGTGAGGGG	0.31
AGTGGCACGTGTACGG	-0.1

Sequence	relative binding free energy [kcal/mol]
TTCATCACGTGGGGGG	0.14
TATTTCACGTGTATGT	0.25
AAATACACGTGGGGTG	-0.07
TGCAGCACGTGGGGTG	-0.24
GCAGGCACGTGGAGTA	-0.11
AGAGACACGTGAGTGG	0.16
ACGATCACGTGAGTGG	0.21
GAAATCACGTGTATTT	0.21
GGCATCACGTGATTTG	0.35
AATAGCACGTGCATGG	-0.1
CGATGCACGTGGGGTG	-0.2
TTTCGCACGTGTTGGT	0.02
TTACGCACGTGGATTT	0.09
GGTACCACGTGTGGAG	0.09
ATGATCACGTGAGTGT	0.12
TGGTTCACGTGGGGAT	0.25
ATCTGCACGTGGTATT	-0.04
CGCGTCACGTGTGGGT	-0.04
CTCGCCACGTGTGGGT	-0.02
ATTCGCACGTGGGTTG	-0.25
GATGGCACGTGCGGGA	-0.08
AATCTCACGTGTTTTT	0.13
